Out of some 310,000 compounds screened, about 2,200 (0.71%) showed an effect of 50% or more. Effects have a minus sign here. The list shows a part of the results.
biological target: human ether-à-go-go-related gene (hERG) potassium channel (human, UniProt Q12809); experiment: primary screen, population patch clamp on CHO cells stably expressing hERG
Sequence (Q12809 whole entry, looked up): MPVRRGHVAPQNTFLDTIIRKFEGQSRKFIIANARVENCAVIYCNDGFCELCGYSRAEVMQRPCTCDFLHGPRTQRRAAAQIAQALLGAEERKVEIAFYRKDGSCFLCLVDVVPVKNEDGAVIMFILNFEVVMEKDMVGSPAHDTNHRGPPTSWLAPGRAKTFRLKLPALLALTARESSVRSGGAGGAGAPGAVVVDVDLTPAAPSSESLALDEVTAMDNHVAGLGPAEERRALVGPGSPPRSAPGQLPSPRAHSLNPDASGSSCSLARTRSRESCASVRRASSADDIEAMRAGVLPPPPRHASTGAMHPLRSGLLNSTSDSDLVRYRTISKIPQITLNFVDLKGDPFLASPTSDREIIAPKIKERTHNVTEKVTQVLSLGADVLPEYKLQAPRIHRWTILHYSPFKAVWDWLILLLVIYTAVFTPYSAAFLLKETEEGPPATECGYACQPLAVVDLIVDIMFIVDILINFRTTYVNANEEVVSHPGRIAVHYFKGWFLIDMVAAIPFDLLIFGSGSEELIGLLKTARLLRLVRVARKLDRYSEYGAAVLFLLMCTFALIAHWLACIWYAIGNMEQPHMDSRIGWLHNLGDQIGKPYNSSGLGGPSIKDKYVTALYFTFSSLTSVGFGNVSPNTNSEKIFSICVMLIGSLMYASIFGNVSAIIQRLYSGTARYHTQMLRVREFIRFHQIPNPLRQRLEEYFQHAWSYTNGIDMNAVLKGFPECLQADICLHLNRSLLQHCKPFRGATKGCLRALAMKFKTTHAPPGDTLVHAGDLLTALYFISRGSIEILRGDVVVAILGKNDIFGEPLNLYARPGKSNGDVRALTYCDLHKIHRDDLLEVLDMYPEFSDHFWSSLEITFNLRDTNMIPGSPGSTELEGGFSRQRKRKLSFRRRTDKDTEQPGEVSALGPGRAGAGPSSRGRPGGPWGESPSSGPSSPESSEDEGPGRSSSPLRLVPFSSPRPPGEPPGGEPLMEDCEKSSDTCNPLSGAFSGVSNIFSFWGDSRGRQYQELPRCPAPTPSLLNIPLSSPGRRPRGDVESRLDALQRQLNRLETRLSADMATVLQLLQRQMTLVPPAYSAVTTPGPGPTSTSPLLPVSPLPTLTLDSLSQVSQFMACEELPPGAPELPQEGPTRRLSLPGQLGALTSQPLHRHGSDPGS

| SMILES | hERG current change (%, negative = inhibition) at 1uM [%] |
| --- | --- |
| CCC(=O)c1ccccc1OCC(=O)Nc1c(C)cccc1C | 8.24 |
| CCOc1cc(/C=N/NC(=O)Nc2ccccc2)ccc1O | 2.04 |
| CCN(CC)CCOC(=O)c1cccc(OC)c1.Cl | 1.64 |
| Cc1cccc(-c2nnc3n2N=C(c2ccccc2)CS3)c1 | 12.1 |
| O=C(NCc1ccco1)C(c1ccco1)N(CCc1ccccc1)C(=O)Cn1nnc2ccccc21 (stereo not drawn) | 0.882 |
| COc1cccc(/C=C2\SC(=O)N(CCC(=O)NCCCn3ccnc3)C2=O)c1 | 12.6 |
| NS(=O)(=O)c1ccc(CCNC(=O)COc2ccc3c4c(c(=O)oc3c2)CCC4)cc1 | 10.5 |
| Cc1nc(CSc2n[nH]c(=O)n2-c2cccc(F)c2)cs1 | 17.6 |
| COc1ccc(N2CCN(c3ccc(NC(=O)/C=C\C(=O)O)cc3)CC2)cc1 | 7.83 |
| CC(NC(=O)c1ccccc1F)C12CC3CC(CC(C3)C1)C2 (stereo not drawn) | 12.5 |
| CCc1ccc(C(C(=O)NC2CCCCC2)N(C(=O)c2csnn2)C2CC2)cc1 (stereo not drawn) | 5.76 |
| O=C(Cn1cnc2ccccc21)N/N=C/c1ccccn1 | 11.6 |
| CCOC(=O)[C@H]1[C@H]2COc3cc(OC)ccc3[C@@H]2N2C(=O)c3ccc(C)cc3NC(=O)[C@@]12C | 9.49 |
| Cn1cnc(S(=O)(=O)N2CCN(c3cccc(Cl)c3)CC2)c1 | 12.8 |
| C=CCn1c(CNC(=O)c2ccccc2F)nnc1SCc1nc2ccccc2c(=O)[nH]1 | 17.1 |
| O=C(CN1CCCN(S(=O)(=O)c2ccc(F)cc2)CC1)Nc1cccc(F)c1 | -2.54 |
| COc1cc(-c2nnc(CSc3nnc(N)s3)o2)cc(OC)c1OC | 7.02 |
| Cc1nn(Cc2ccc(F)cc2)c(C)c1NC(=O)c1noc2c1CCc1ccccc1-2 | -1.28 |
| COc1ccc(C)c(-n2c(=O)n(Cc3ccccc3)c(=O)c3[nH]cnc32)c1 | 10.5 |
| Oc1ccccc1C1=Nc2ccccc2N=C(c2cccs2)C1 | 21.3 |
| COc1cc(C(=O)NCCOc2cccc3cccnc23)cc(OC)c1OC | 4.83 |
| Cc1ccc(Oc2ccc(-c3nc(N)nc(N)n3)cc2)cc1 | 17.1 |
| O=C(NC1CCCC1)C(c1ccncc1)N(C(=O)c1ccco1)c1ccc(Cl)cc1 (stereo not drawn) | 11.6 |
| CCC(=O)Nc1ccc(C(=O)CSc2nnc(CNc3ccc(Cl)cc3)o2)cc1OC | 9.73 |
